Where two headings read alike, the source gives them in different places.
How the values were obtained:
[1] = tested on: MDA-MB-231 human breast cancer cells; assay: Cytotoxic effect of the FGFR2 ADCs (Cell Titer Glow viability assay); type: cell-based; conditions: read-out: MDA-MB-231, IC50, 72 hr, 72 hr incubation, growth inhibition vs day 0, cell line does not express FGFR2 at the cell surface
Experimental: (§1) To determine the amounts of FGFR2 available for the antibody on the cell surface, the cell binding of the FGFR2 antibody on different tumour cell lines was analysed in flow cytometry. The cell lines below were used for the experiments. The information on mutations and copy number of the FGFR2 comes from the Sanger Center Genome Project: • SNU-16 human stomach carcinoma cells, FGFR2 gene amplification (copy number 14; ATCC-CRL-5974, RPMI 1640 (Biochrom FG1215)+10% FCS • KatoIII human stomach carcinoma cells, FGFR2 gene amplification (copy number 14 ATCC-TCP-1008; Iscove's (Biochrom FG0465)+20% FCS • SUM52-PE human breast cancer cells, FGFR2 gene amplification (copy number 14; Asterand Lot No.: 28062A1-6004; Ham's F12 (Biochrom FG0815)+5% FCS+10 mM Hepes buffer+1 μg/ml hydrocortisone+5 μg/ml insulin • MFM-223 human breast cancer cells, FGFR2 gene amplification (copy number 14; ECACC-98050130, MEM Earle (Biochrom F0315)+10% FCS+2 mM glutamine • NCI-H716 human colorectal carcinoma cells, FGFR2 gene amplification (copy number: 8; ATCC-CCL-251; RPMI 1640 (Biochrom FG1215)+10% FCS) • MDA-MB-231 human breast cancer cells (no FGFR2 gene amplification, copy number 3; ATCC-HTB-26, DMEM/HAM's F12 (Biochrom FG4815)+10% FCS
(§2) The cytotoxic effect of the FGFR2 ADCs was determined on various cell lines with different expression quantities of FGFR2, as follows:
(§3) The cells were cultured according to a standard method, using the growth media indicated under C-1. For the implementation, the cells were detached with a solution of trypsin (0.05%) and EDTA (0.02%) in PBS (Biochrom AG #L2143), pelletized, resuspended in culture medium, counted, and seeded into a 96-well culture plate with a white base (Costar #3610) (at 75 μl/well, following cell counts per well: SNU-16: 3000; MFM-223: 7000; MDA-MB-231: 4000; SUM52-PE: 3000; NCI-H716: 3000; KatoIII: 3000) and incubated in an incubator at 37° C. under 5% carbon dioxide. After 24 hours, the antibody-drug conjugates in 25 μl of culture medium (four-fold concentration) were applied to the cells, giving final antibody-drug conjugate concentrations of 3×10^−7 M to 3×10^−11 M on the cells (triplicates). The cells were then incubated in an incubator at 37° C. and 5% carbon dioxide. In a parallel plate, the cell vitality at the beginning of drug treatment (day 0) was determined using the Cell Titer Glow Luminescent Cell Viability Assay (Promega #G7573 and #G7571). For this, 100 μl of the substrate were added per cell batch, and the plates were then covered with aluminium foil, shaken at 180 rpm with a plate shaker for 2 minutes, left to stand on the laboratory bench for 8 minutes, and then measured using a luminometer (Victor X2, Perkin Elmer). The substrate detects the ATP content in the living cells, producing a luminescence signal whose level is directly proportional to the vitality of the cells. After 72 hours of incubation with the antibody-drug conjugates, the vitality was determined in these cells as well, using the Cell Titer Glow Luminescent Cell Viability Assay as described above. From the data measured, the IC50 of growth inhibition was calculated in comparison to that on day 0, using the laboratory software MTS (developed by Schering AG and Bayer Business Services 1999-2009) on the basis of a 4-parameter adaptation.

[2] = tested on: MFM-223 human breast cancer cells; assay: as above; type: cell-based
Experimental: as §1, §2, §3

[3] = tested on: SNU-16 human stomach carcinoma cells; assay: as above; type: cell-based
Experimental: as §1, §2, §3

[4] = tested on: SNU-16 stomach carcinoma cells; assay: SNU-16 xenograft model in the mouse; type: in vivo; conditions: day 31; for T/C: female NODscid mice
Experimental: Human tumour cells which express FGFR2 were inoculated subcutaneously into the flank of immunosuppressed mice, such as nude mice or SCID mice. 1-10 million cells are detached from the cell culture, centrifuged and resuspended with 100 μl of medium, 50% medium/50% Matrigel or 100% Matrigel. The cell suspension was injected beneath the skin of the mouse.
Within a few days, a tumour grew. Treatment began no earlier than at a tumour size of 20-25 mm^2 after establishment of a tumour.
Treatment with conjugate took place via the intravenous route into the caudal vein of the mouse. The conjugate was dissolved in PBS and is administered with a volume of 5-10 ml/kg.
The treatment scheme was governed by the pharmacokinetics of the antibody. As a standard, treatment took place three times following every fourth day or every seventh day. Treatment, however, may also be continued further, or a second cycle with three days of treatment may follow at a later point in time.
As a standard basis, 8 animals were used per treatment group. This number may be higher if particularly strong fluctuations in tumour growth or after treatment are anticipated. As well as the groups which receive the active substances, one group, as a control group, was treated only with the buffer, in accordance with the same scheme.
In the course of the experiment, the area of the tumour was measured regularly using a sliding caliper in two dimensions (length/width). The area of the tumour was calculated by means of the formula length× width.
At the end of the experiment, the tumours were removed and weighed. The ratio of the average tumour weights for the therapy group (T) to the control group (C) was expressed as T/C. If control and treatment groups finished at different times, then the T/C value was calculated using the tumour areas of the last common measurement of all treatment and control groups.
Two million SNU-16 stomach carcinoma cells were inoculated subcutaneously into the flank of female NODscid mice.
Intravenous treatment with the conjugates was commenced at an average tumour size of 20-30 mm^2 When the control groups had reached the maximum permissible size, these groups were ended. The experimental groups treated with FGFR2 conjugates were ended when the tumours began to grow again. The activity of the conjugates was determined on day 31, the last point in time at which the vehicle control was still in the experiment. All of the FGFR2 conjugates tested inhibited tumour growth in a dose-dependent manner. At a dose of 5 mg/kg, Example 1 achieved a T/C of 0.08, Example 3 a T/C of 0.06 and Example 26 a T/C of 0.10. […] At a dose of 2.5 mg/kg, Example 26 achieved a T/C of 0.14. At this dose, Example 26 led to partial regression in 40% of the animals. […]

B1: Example 1: immunoconjugate; "Coupling here was carried out using 30 mg of M048-D01-hIgG1" (cysteine coupling) (conjugate)
heavy: QVELLESGGGLVQPGGSLRLSCAASGFTFSSYAMSWVRQAPGKGLEWVSAISGSGTSTYYADSVKGRFTISRDNSKNTLYLQMNSLRAEDTAVYYCARVRYNWNHGDWFDPWGQGTLVTVSS[no letters for human IgG1 constant region]
light: QSVLTQPPSASGTPGQRVTISCSGSSSNIGNNYVSWYQQLPGTAPKLLIYENYNRPAGVPDRFSGSKSGTSASLAISGLRSEDEADYYCSSWDDSLNYWVFGGGTKLTVLGQPKAAPSVTLFPPSSEELQANKATLVCLISDFYPGAVTVAWKADSSPVKAGVETTTPSKQSNNKYAASSYLSLTPEQWKSHRSYSCQVTHEGSTVEKTVAPTECS
IC50 [1]: > 300000 pM
IC50 ([1]; listed as Working Example 1): ≥ 300000 pM
IC50 of proliferation, MFM-223 (concentration range in words) [2]: subnanomolar
IC50 ([2]; read-out: MFM-223, IC50, 72 hr, 72 hr incubation, growth inhibition vs day 0, at the drug/mAB ratios indicated): 90.7 pM
IC50 of proliferation, SNU-16 (concentration range in words) [3]: subnanomolar
IC50 ([3]; read-out: SNU-16, IC50, 72 hr, 72 hr incubation, growth inhibition vs day 0, at the drug/mAB ratios indicated): 214 pM
partial regression (animals) ([4]; 1 mg/kg i.v.): all of the animals treated
T/C ([4]; 1 mg/kg i.v.): 0.15
partial regression of the tumour (animals) ([4]; 5 mg/kg i.v.): all of the animals treated
T/C ([4]; 5 mg/kg i.v.): 0.08

— patent publication US20150023989A1, “NEW ANTIBODY DRUG CONJUGATES (ADCS) AND THE USE THEREOF” (SEATTLE GENETICS, INC., priority 2011, published 2015)
